# Reference: PubChem BioAssay AID588579 (National Center for Advancing Translational Sciences (NCATS), 2011)
# The whole screen tested about 400,000 compounds, of which about 2,200 (0.55%) were called active. Inconclusive means that the source gave no clear call. Such entries were picked first, then a sample of the others. Calls follow the shape of the dose curve; as a rule, active = well fitted inhibition curve with a large enough effect; inconclusive = small, poorly fitted or top-dose-only effect, or another doubt; inactive = no such curve, though single readings can be large or run the other way. A potency beside an inconclusive call is a rough fit, not a confirmed value. A structure can be active in one record and inactive in another.
# Target: DNA polymerase kappa (Homo sapiens) (UniProt Q9UBT6)
# Assay: qHTS for Inhibitors of Polymerase Kappa
# Conditions: purified Pol kappa, fluorescent DNA synthesis assay, 10 min; series mostly up to 107 µM
# Summary of the method: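 Activity was followed as the change in fluorescence between reads at 0 and 10 min after starting the reaction with 50 nM substrate. Beforehand, 10 nM polymerase had been preincubated with compound for 15 min at room temperature.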
# % is scaled to controls: 0 for no effect and ±100 for the full control effect; potency is read from the fitted curve at half-maximal effect; tags tell the direction and shape of the fitted curve.
# Chain of UniProt Q9UBT6 (Q9UBT6 whole entry, looked up): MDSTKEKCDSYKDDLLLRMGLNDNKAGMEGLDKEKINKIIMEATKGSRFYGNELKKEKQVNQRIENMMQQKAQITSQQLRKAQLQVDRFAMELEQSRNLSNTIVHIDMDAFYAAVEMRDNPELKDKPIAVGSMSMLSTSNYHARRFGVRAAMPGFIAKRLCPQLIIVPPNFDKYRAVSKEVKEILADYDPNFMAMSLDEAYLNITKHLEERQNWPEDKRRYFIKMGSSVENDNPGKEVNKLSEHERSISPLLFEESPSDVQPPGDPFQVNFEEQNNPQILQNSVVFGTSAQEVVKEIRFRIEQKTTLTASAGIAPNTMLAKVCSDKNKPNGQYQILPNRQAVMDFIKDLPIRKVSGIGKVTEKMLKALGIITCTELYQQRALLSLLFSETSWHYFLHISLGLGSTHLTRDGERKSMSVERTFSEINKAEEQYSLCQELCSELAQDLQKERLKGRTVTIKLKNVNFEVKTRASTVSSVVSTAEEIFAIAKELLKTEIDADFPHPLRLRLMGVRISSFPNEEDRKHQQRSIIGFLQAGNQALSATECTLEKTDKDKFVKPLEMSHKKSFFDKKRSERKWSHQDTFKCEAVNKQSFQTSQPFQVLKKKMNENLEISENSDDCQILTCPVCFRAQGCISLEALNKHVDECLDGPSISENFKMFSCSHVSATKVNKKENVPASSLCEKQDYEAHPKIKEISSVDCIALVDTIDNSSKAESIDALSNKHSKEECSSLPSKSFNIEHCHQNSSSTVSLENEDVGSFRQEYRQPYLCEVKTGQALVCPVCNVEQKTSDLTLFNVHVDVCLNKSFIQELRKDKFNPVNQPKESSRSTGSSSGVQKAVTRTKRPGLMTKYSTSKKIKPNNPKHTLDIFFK
SMILES,Potency,"activity, negative = inhibition"
CCOc1ccc(CCNC(=O)CCn2ccc3cc(S(=O)(=O)N4CCCC4)ccc32)cc1,"inconclusive: 89.1 µM [inhibitor, single point]",
CS(=O)(=O)c1ccc(C(=O)Nc2nc(-c3ccco3)c(-c3ccco3)s2)cc1,active: 3.16 µM,
O=C(COC(=O)CCC(=O)c1cccs1)NCc1ccco1,active: 31.6 µM,
COc1ccc2c(c1)c1nnc(SC)nc1n2Cc1ccccc1,inactive,
Cc1ccc(NC(=O)c2c(NC(=O)C(F)(F)F)sc3c2CCCCC3)cc1,"inconclusive: 70.8 µM [inhibitor, partial curve, poor fit]",
O=C(COC(=O)c1ccccc1Nc1cccc(C(F)(F)F)c1)NCc1ccco1,"inconclusive: 89.1 µM [inhibitor, single point]",
CC(=O)c1cccc(NC(=O)CN2C(=O)C(=O)N(Cc3ccco3)C2=O)c1,"inconclusive: 89.1 µM [inhibitor, single point]",
COc1cc(-c2nc3ccc(Cl)cn3c2Nc2ccc3c(c2)OCCO3)ccc1O,inactive,
Cc1cccc(CSc2nnc3[nH]c(=O)cc(-c4ccccc4)n23)c1,inactive,
Cc1ccc(C(C)NC(=O)c2ccc3c(c2)OCCO3)cc1C (stereo not given),inactive,
CCc1cccc(NC(=O)c2ccc3c(c2)c(C)c(C)n3Cc2ccc(F)cc2)c1,"inconclusive: 89.1 µM [inhibitor, partial curve, poor fit]",
Cc1ccc2cccc(S(=O)(=O)N3CCCc4ccccc43)c2n1,inactive,
COc1ccc(C(=O)c2ccccc2)c(O)c1O,active: 10 µM,
O=C(CCc1ccc(S(=O)(=O)N2CCOCC2)cc1)N/N=C/c1ccc(O)c(O)c1O,active: 8.91 µM,
O=S(=O)(NCc1ccccc1)c1cccs1,"inconclusive: 89.1 µM [inhibitor, single point]",
COc1ccccc1OCCSc1nnc(CNC(=O)c2ccco2)n1C,inactive,
CC(C)C(=O)N1CCN(c2ccccc2NC(=O)c2ccc3c(c2)OCCO3)CC1,"inconclusive: 100 µM [inhibitor, single point]",
Cc1csc(NC(=O)CSc2sc3c(O)cc(=O)[nH]c3c2C#N)n1,active: 28.2 µM,
COc1ccc(CNC(=O)C2CCN(c3nc4ccccc4[nH]3)CC2)c(OC)c1,inactive,
O=[N+]([O-])c1ccc2cn[nH]c2c1,inactive,
COCCn1c(C)cc(C(=O)COC(=O)c2cc3c(s2)CCC3)c1C,active: 39.8 µM,
Cc1cc(NC(=O)CSc2nc(-c3ccccc3F)nc3c2c(=O)n(C)c(=O)n3C)no1,inactive,
CCNC(=O)COc1ccc(S(=O)(=O)Nc2ccccc2)cc1,"inconclusive: 89.1 µM [inhibitor, partial curve, poor fit]",
CCCc1nc(SCC(=O)O)c2sc(=S)n(-c3ccccc3)c2n1,inactive,

SMILES,Potency,"activity, negative = inhibition"
CCN(CC)c1ccc(/C=C/c2cc(Cl)nc3ccccc23)cc1,inactive,
O=C(O)C1CC=CCC1C(=O)N1CCc2ccccc21 (stereo not given),"inconclusive: 89.1 µM [inhibitor, partial curve, poor fit]",
O=C(/C=C/c1ccco1)NC(=S)Nc1ccccc1O,"inconclusive: 89.1 µM [inhibitor, single point]",
COc1cc(/C=N/NC(=O)c2ccccc2O)ccc1OC(=O)CC1SC(=O)NC1=O (stereo not given),"inconclusive: 89.1 µM [inhibitor, single point]",
O=C(O)/C(=C/c1ccc(Cl)c([N+](=O)[O-])c1)c1ccc(S(=O)(=O)N2CCCCC2)s1,active: 89.1 µM,
CC(C)NC(=O)CCSc1nc(-c2ccc3c(c2)OCO3)cc(C(F)(F)F)n1,"inconclusive: 89.1 µM [inhibitor, single point]",
O=c1oc(-c2ccc(O)c(O)c2)cc2cccc(O)c12,"inconclusive: 79.4 µM [inhibitor, partial curve]",
COc1cc2nc(C#N)nc(N)c2cc1OC,"inconclusive: 100 µM [inhibitor, single point]",
Cc1nnc(N2CCN(C(=O)Nc3cc(F)ccc3F)CC2)c2nn(-c3ccc(Cl)cc3)c(C)c12,inactive,
O=c1c2c3nc4ccccc4nc3n(Cc3ccccc3)c2ncn1Cc1ccco1,"inconclusive: 50.1 µM [inhibitor, partial curve, poor fit]",
COc1ccc(CC2NCCC3=CC(=O)CCC32)cc1O (stereo not given),"inconclusive: 89.1 µM [inhibitor, partial curve, poor fit]",
O=C1C2C3C=CC(C2C(=O)N1c1cccc(O)c1)C1C2C(=O)N(c4cccc(O)c4)C(=O)C2C31 (stereo not given),"inconclusive: 89.1 µM [inhibitor, single point]",
COc1cc(/C=C/C(=O)O)cc(S(=O)(=O)Nc2ccccc2C(=O)NCc2ccco2)c1OC,"inconclusive: 100 µM [inhibitor, single point]",
Cc1ccc(N2CC(C(=O)N3CCN(c4ccccn4)CC3)CC2=O)cc1 (stereo not given),"inconclusive: 89.1 µM [inhibitor, partial curve, poor fit]",
O=C(O)c1ccc(N2C(=O)CSC2=S)cc1,active: 79.4 µM,
COc1ccccc1NC(=O)C1=C(C)NC(SCC(=O)c2ccccc2)=C(C#N)C1c1ccco1 (stereo not given),"inconclusive: 79.4 µM [inhibitor, partial curve, poor fit]",
CCOC(=O)C1Nc2ccc(Br)cc2C2C=CCC12 (stereo not given),"inconclusive: 100 µM [inhibitor, single point]",
CC(C)Cc1nnc(NC(=O)c2cc3c(s2)CCC3)s1,"inconclusive: 56.2 µM [inhibitor, partial curve, poor fit]",
Cc1nc2c3ccccc3nc(NNC(=O)CCC(=O)O)n2n1,inactive,
Cc1ccc(C(=O)N/N=C/c2cn(Cc3ccccc3)c3ccccc23)cn1,inactive,
O=C(N/N=C/c1ccc(-c2ccc(S(=O)(=O)Nc3ncccn3)cc2)o1)c1cc2ccccc2cc1O,active: 4.47 µM,
O=c1cc(Br)c(O)c(Br)cc1Br,active: 50.1 µM,
Cc1cc(C)n2[nH]c(=O)c(N=Nc3cccc(Cl)c3)c2n1,inactive,
CCCCC/C=C/C=C1/C(=O)C=C[C@@H]1C/C=C\CCCC(=O)O,active: 3.16 µM,

SMILES,Potency,"activity, negative = inhibition"
COc1ccc(-c2c(O)c3c(OC)c4c(cc3oc2=O)OC(C)(C)CC4)cc1,"inconclusive: 25.1 µM [inhibitor, single point]",
O=C(CCCOc1ccccc1)Nc1nnc(C2CCCO2)s1 (stereo not given),"inconclusive: 89.1 µM [inhibitor, single point]",
N[C@H](COP(=O)(O)O)C(=O)O,,inactive: 4.24% [at 19.4 µM]
Clc1ccc(-c2nnc3sc(-c4ccc(Br)o4)nn23)c(Cl)c1,inactive,
COC(=O)c1ccc(NC(=O)c2cnn(-c3ccc(Cl)cc3)c2C2CCN(C(=O)OC(C)(C)C)CC2)cc1,"inconclusive: 89.1 µM [inhibitor, partial curve, poor fit]",
O=S(=O)(N/N=C\c1ccccc1O)c1ccc(Cl)cc1,inactive,
O=C1NC(=Nc2ccccc2Cl)S/C1=C\c1cc([N+](=O)[O-])ccc1O,"inconclusive: 89.1 µM [inhibitor, single point]",
CCN(CC)CCCNC(=O)c1cn(CC)c2ccc(S(=O)(=O)N3CCC(C)CC3)cc2c1=O,inactive,
CCOC(=O)c1cccc(-c2ccc(C=O)o2)c1,inactive,
CC1(C)C(C=C(Cl)Cl)C1C(=O)N1CCN(c2ccccc2)CC1 (stereo not given),"inconclusive: 89.1 µM [inhibitor, single point]",
Cc1ccc(NS(=O)(=O)c2ccc(N/N=C/c3ccccc3OCC(=O)O)c([N+](=O)[O-])c2)c(C)c1,"inconclusive: 100 µM [inhibitor, single point]",
O=C(c1ccc(Cl)cc1)n1c(NCc2ccccc2)n[nH]c1=S,inactive,
Cc1ccc2c(=O)c(C(=O)c3ccccc3)cn(CC(=O)NCc3ccccc3)c2n1,inactive,
Cc1ccc(C)c(-n2c(Cc3cc(=O)[nH]c(=O)[nH]3)nnc2SCC(=O)NCc2ccco2)c1,"inconclusive: 89.1 µM [inhibitor, partial curve, poor fit]",
O=C1OCCN1C(=O)[C@H]1[C@H](c2ccc(Cl)cc2)C(c2ccc(F)cc2)=NN1c1ccccc1,"inconclusive: 39.8 µM [inhibitor, partial curve, poor fit]",
N#CCC(=O)Nc1ccc(C(=O)N2CCN(S(=O)(=O)c3ccc4ccccc4c3)CC2)cc1,inactive,
CC(CC(=O)Nc1cccc(S(=O)(=O)N2CCCCC2)c1)c1ccccc1 (stereo not given),"inconclusive: 89.1 µM [inhibitor, partial curve, poor fit]",
C=CC(C)(C)c1[nH]c2ccccc2c1C1=C(O)C(=O)C(c2c[nH]c3c(CC=C(C)C)cccc23)=C(O)C1=O,active: 1.41 µM,
C=CCn1c(SCc2cc(=O)n3ccsc3n2)nnc1C1CCCCC1,"inconclusive: 89.1 µM [inhibitor, single point]",
Cc1cccc(C2=NN(c3ccc(Br)cc3)[C@@H](C(=O)N3CCOC3=O)[C@@H]2C)c1,"inconclusive: 25.1 µM [inhibitor, partial curve, poor fit]",
Cc1ccc(-n2cccc2/C=C2/C(=N)N3C(=NC2=O)SN=C3S(C)(=O)=O)cc1Cl,"inconclusive: 89.1 µM [inhibitor, single point]",
CO[C@H](C(=O)[C@@H](O)[C@@H](C)O)C1Cc2cc3cc(O[C@H]4C[C@@H](O[C@H]5C[C@@H](O)[C@H](O)[C@@H](C)O5)[C@@H](O)[C@@H](C)O4)c(C)c(O)c3c(O)c2C(=O)[C@H]1O[C@H]1C[C@@H](O[C@H]2C[C@@H](O[C@H]3C[C@](C)(O)[C@H](O)[C@@H](C)O3)[C@H](O)[C@@H](C)O2)[C@H](O)[C@@H](C)O1 (stereo not given in full),"inconclusive: 10 µM [inhibitor, single point]",
